Results as given in PMC4336329 (PLoS ONE, 2015).
Among all 310,000 compounds or so, about 2,200 (0.71%) showed an effect of 50% or more. The effect is printed as a negative number. This is one part of the list.

biological target: human ether-à-go-go-related gene (hERG) potassium channel (human, UniProt Q12809); test: primary screen, population patch clamp on CHO cells stably expressing hERG
Sequence (Q12809 whole entry, looked up): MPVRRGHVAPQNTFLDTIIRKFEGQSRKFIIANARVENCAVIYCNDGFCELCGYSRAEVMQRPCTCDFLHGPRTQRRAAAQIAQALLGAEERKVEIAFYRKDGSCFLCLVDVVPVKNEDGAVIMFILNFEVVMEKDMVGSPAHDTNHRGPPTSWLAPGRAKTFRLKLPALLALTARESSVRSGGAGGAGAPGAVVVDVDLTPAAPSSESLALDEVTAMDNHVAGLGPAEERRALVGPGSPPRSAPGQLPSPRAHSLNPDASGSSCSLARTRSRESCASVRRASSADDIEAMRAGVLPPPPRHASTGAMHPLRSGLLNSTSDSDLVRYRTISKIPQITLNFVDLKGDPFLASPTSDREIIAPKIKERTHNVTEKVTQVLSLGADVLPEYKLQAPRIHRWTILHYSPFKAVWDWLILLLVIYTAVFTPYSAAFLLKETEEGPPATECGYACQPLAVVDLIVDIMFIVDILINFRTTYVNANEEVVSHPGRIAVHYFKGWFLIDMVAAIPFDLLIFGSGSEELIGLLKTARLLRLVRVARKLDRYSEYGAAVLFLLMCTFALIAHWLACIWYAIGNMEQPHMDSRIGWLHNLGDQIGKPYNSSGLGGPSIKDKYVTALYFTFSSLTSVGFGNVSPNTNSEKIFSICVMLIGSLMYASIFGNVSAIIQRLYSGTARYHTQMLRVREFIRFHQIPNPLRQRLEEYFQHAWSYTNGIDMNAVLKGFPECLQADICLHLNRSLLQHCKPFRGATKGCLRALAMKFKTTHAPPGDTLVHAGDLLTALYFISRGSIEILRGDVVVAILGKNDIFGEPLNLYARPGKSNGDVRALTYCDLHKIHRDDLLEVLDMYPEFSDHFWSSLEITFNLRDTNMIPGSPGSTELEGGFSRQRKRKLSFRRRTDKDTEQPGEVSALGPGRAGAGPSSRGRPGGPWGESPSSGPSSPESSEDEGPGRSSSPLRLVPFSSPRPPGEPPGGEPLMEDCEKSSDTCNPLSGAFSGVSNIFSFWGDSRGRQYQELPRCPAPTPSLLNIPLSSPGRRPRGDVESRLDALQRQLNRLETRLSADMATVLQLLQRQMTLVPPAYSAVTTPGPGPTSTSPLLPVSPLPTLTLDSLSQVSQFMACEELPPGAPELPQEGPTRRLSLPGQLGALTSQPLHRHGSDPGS

Row | Structure (SMILES) | hERG current change (%, negative = inhibition) at 1uM
1 | CCCCCSc1nc2c(c(=O)[nH]c(=O)n2C)n1CC | 15.7%
2 | COc1ccc(Nc2nc(-c3sc(C)nc3C)cs2)c(OC)c1 | 16.3%
3 | O=C(CN1CCN(c2ccccc2O)CC1)Nc1ccc2c(c1)OCCCO2 | 5.05%
4 | O=C(CCSCCC(=O)NCc1ccco1)NCc1ccco1 | 8.63%
5 | CC(=O)N(C)c1ccc(OCC(O)Cn2c(C)nc3ccccc32)cc1 (centres unmarked) | 8.46%
6 | O=[N+]([O-])c1cccc(NC(=S)Nc2nc(-c3ccccc3Cl)cs2)c1 | 8.57%
7 | CSCCC(NS(=O)(=O)c1ccc(C)cc1)C(=O)NNC(=O)c1csc(N2CCOCC2)n1 (centres unmarked) | 32.2%
8 | Fc1ccc(CN2CCC(Cc3ccccc3)CC2)cc1F | 11.8%
9 | C/C(CCN1CCc2nc(-c3ccccc3)c(-c3ccccc3)cc2C1)=N\OC[C@@H](C)[C@H](OCc1ccccc1)C(C)C | 22.8%
10 | Cc1cccc(N(CC(=O)Nc2c(C)n(C)n(-c3ccccc3)c2=O)S(C)(=O)=O)c1 | 0.336%
11 | Cc1cccc(C2c3[nH]c4ccccc4c3CCN2C(=O)CN2CCOC2=O)n1 (centres unmarked) | 3.13%
12 | COc1ccccc1NC(=O)c1ccc(NS(C)(=O)=O)cc1 | -1.18%
13 | c1ccc(-c2[nH]ncc2-c2nc3ccccc3[nH]2)cc1 | 3.96%
14 | CCOc1cc(C(=S)N2CCOCC2)ccc1OS(=O)(=O)c1ccccc1[N+](=O)[O-] | 5.67%
15 | COC(=O)C1=C(C)n2nnnc2NC1c1cc2ccccc2o1 (centres unmarked) | -6.78%
16 | CC(C)(C)c1ccc(CSc2cnn(C(C)(C)C)c(=O)c2Cl)cc1 | 15.7%
17 | CC(=O)NCC(=O)OCN1C(=O)c2ccccc2C1=O | 10.7%
18 | Cc1cccc(OCCNC(=S)NC(=O)c2cncc(Br)c2)c1 | 19.7%
19 | COc1ccccc1-c1coc2c(CN3C(C)CCCC3C)c(O)ccc2c1=O (centres unmarked) | 18%
20 | Cc1nc2ccccc2c(=O)n1NC(=O)c1ccccc1Br | 10.3%
21 | Cc1ccccc1OCC(=O)N/N=C/c1cccc(Oc2ccc([N+](=O)[O-])cc2[N+](=O)[O-])c1 | 10.5%
22 | COCCN(CCOC)C(=O)C12CCC(C)(C(=O)C1)C2(C)C (centres unmarked) | 11.1%

Row | Structure (SMILES) | hERG current change (%, negative = inhibition) at 1uM
23 | O=C(CN1CCN(S(=O)(=O)c2ccccc2)CC1)NC(=O)NCc1ccco1 | 6.34%
24 | CSc1ncccc1C(=O)OCC(=O)c1ccc2c(c1)NC(=O)CO2 | 14%
25 | CCOC(=O)C1=C(C)OC(N)=C(C#N)C1c1cc2c(cc1Br)OCO2 (centres unmarked) | 5.26%
26 | O=C(CSc1nc(=O)n2ccccc2n1)NC1CCCCC1 | 8.07%
27 | Cc1onc(C(=O)NCCc2ccccc2)c1[N+](=O)[O-] | 10.5%
28 | CC12CCC(=O)N1C(C(=O)OCC(=O)Nc1ccc(Cl)c(Cl)c1)CS2 (centres unmarked) | -1.24%
29 | N/C(=N\OC(=O)c1ccccc1F)c1cccc([N+](=O)[O-])c1 | 12.9%
30 | CCOC(=O)CCCCCNC(=O)c1c(O)[nH]c(=O)[nH]c1=O | 15.6%
31 | CN1CCCC(OC(=O)c2cccc(S(=O)(=O)N3CCCCCC3)c2)C1.Cl (centres unmarked) | -4.45%
32 | CCOc1ccc(NC(=O)c2ccc(CNc3c(N4CCCC4)c(=O)c3=O)cc2)cc1 | 12.4%
33 | Cc1ccccc1S(=O)(=O)NCc1cccnc1 | 11.9%
34 | CCCCNC(=O)c1ccc2c(c1)N(CC)C(=O)c1ccccc1S2(=O)=O | 10.5%
35 | O=C1C2C(C(=O)N1/N=C/c1ccc([N+](=O)[O-])o1)C1C=CC2C12CC2 (centres unmarked) | 7.99%
36 | CCc1ccccc1NC1=NCC(=O)N1C1CCCC1.Cl | 15.1%
37 | Cc1ccccc1C(=O)Nc1ccc(O)c2c(=O)cc(-c3ccccc3Cl)oc12 | 3.07%
38 | COc1ccc(S(=O)(=O)N2CCN(Cc3ccc(OC)c(OC)c3)CC2)cc1 | 5.69%
39 | COc1ccc(C(=O)OCC(=O)Nc2cc(C)c(C)cc2[N+](=O)[O-])cc1 | 3.52%
40 | O=C(CCCCCN1C(=O)c2cccc3cccc(c23)C1=O)NCc1cccnc1 | 13.7%
41 | C/C(=N\NC(=S)NCc1ccccc1)c1ccc2ccccc2c1 | 10.9%
42 | CN(C1=NS(=O)(=O)c2ccccc21)c1ccc(OC(=O)c2ccncc2)cc1 | 6.26%
43 | C[C@@H]1CC2[C@@H]3CC[C@H]4CC(=O)CC[C@]4(C)C3=CC[C@]2(C)[C@@]1(O)C(=O)CO (some centres unmarked) | 4.23%
44 | CCOc1ccc(C2C(=O)N(C3CCCCC3)CC(=O)N2CC2CCCO2)cc1OC (centres unmarked) | 4.17%

Row | Structure (SMILES) | hERG current change (%, negative = inhibition) at 1uM
45 | CC(C)c1ccc2[nH]c3nc(SCC(=O)NC4CC4)nnc3c2c1 | 16%
46 | COc1ccc(NS(=O)(=O)c2ccc(C)c(C(=O)O)c2)cc1 | 9.19%
47 | CC(C)Oc1ccc(CNC(=O)Cn2ccc3cc(S(=O)(=O)N4CCCC4)ccc32)cc1 | 19.3%
48 | CSc1ccc(CN(C)Cc2nc3ccccc3c(=O)[nH]2)cc1 | -2%
49 | COc1ccccc1NS(=O)(=O)c1cc([N+](=O)[O-])ccc1N/N=C/c1c[nH]c2ccccc12 | 15.3%
50 | COC(=O)c1sc(-c2ccc(Cl)cc2)cc1NC(=O)/C=C/C(=O)O | 14.3%
51 | CCOc1ccccc1OCCn1ncc2ccc(OC)c(OC)c2c1=O | 10.6%
52 | CCOc1ccc(CC(=O)OCc2cc(=O)n3cc(Br)ccc3n2)cc1 | -11%
53 | CS(=O)(=O)Nc1ccccc1N=C(c1ccccc1)c1ccccc1 | 14.3%
54 | Cc1c(-c2ccc(Cl)cc2)[n+](=O)c2c(n1[O-])CCCC2 | 7.11%
55 | O=C(Cc1ccccc1)Nc1scc(-c2ccccc2)c1C(=O)N1CCOCC1 | -16.4%
56 | Cc1ccc(S(=O)(=O)CC(O)COc2ccc(F)cc2Cl)cc1 (centres unmarked) | 4.98%
57 | O=C(CN1CCN(S(=O)(=O)c2ccc(F)cc2)CC1)N1CCOCC1 | -1.04%
58 | COc1ccccc1NC(=O)c1sc2ncn(CC(=O)Nc3ccccc3)c(=O)c2c1C | 17.6%
59 | CCOC(=O)C(=O)Nc1sc(C(=O)N(CC)CC)c(C)c1C#N | 10.2%
60 | Cc1nnc(SC(C)C(=O)N(C)C2CCCCC2)n1N (centres unmarked) | 10.5%
61 | O=C(Nc1nnc(-c2ccco2)s1)c1ccccc1 | 12.6%
62 | CN(C)C(=O)c1ccc(NC(=O)COc2ccc([N+](=O)[O-])cc2)cc1 | -9.89%
63 | Cc1ccc2nc(-c3ccc(-c4ccccn4)s3)cn2c1 | 5.77%
64 | CC1CN(Cc2ccccc2)c2nc3c(c(=O)n(CC(N)=O)c(=O)n3C)n2C1 (centres unmarked) | 18.7%
65 | O=S(=O)(c1cccc(-c2nc3n(n2)Cc2ccccc2-3)c1)N1CCCCC1 | 9.98%
66 | Cc1ccc(S(=O)(=O)N2CCCCCC2)cc1C(=O)NCc1ccccn1 | 6.94%

Row | Structure (SMILES) | hERG current change (%, negative = inhibition) at 1uM
67 | Cc1ccc(C2/C(=C(\O)c3ccc4c(c3)OCCO4)C(=O)C(=O)N2CC2CCCO2)cc1 (centres unmarked) | 13.1%
68 | C#CCO[C@@H]1C[C@H](n2cnc3c(=O)[nH]c(NC(=O)C(C)C)nc32)O[C@@H]1CO | 15.4%
69 | CC1CC1C(=O)N(C)CC(=O)Nc1cccc(F)c1 (centres unmarked) | 14.3%
70 | COc1ccc(CN(C(=O)c2oc3cc(C)ccc3c2C)C2CCS(=O)(=O)C2)cc1OC (centres unmarked) | 10.1%
71 | Cc1nn(C(=O)c2c(-c3ccccc3)noc2C)c(C)c1N=Nc1cc(C(F)(F)F)cc(C(F)(F)F)c1 | 16.2%
72 | CCOC(=O)Cn1c(=O)n(Cc2ccc(OC)cc2)c(=O)c2cccnc21 | 6.99%
73 | COc1ccccc1NC(=O)c1cc2ccccc2nc1C | 5.66%
74 | COc1cccc(/C=N/Nc2snc(SC)c2C#N)c1 | 6.81%
75 | Cc1cccc(N2CCN(C(=O)c3cc(S(=O)(=O)N(C)C)ccc3N3CCCC3)CC2)c1C | 5.76%
76 | CCN(CC)S(=O)(=O)c1ccc(N2CCOCC2)c(NC(=O)C2CC2)c1 | 11.3%
77 | Nc1nc(N2CCN(Cc3ccccc3)CC2)n[nH]1 | 18.6%
78 | O=C(OCc1ccccc1)c1cccc(-c2nnc(-c3ccccc3)o2)c1 | 1.17%
79 | CC(C)Cc1ccc(/C=C/C(=O)N2CCOCC2)cc1 | 4.88%
80 | COc1cccc(C2CC(c3ccccc3OC)n3nc(N)nc3N2)c1 (centres unmarked) | -0.164%
81 | Cc1ccc(CNC(=O)c2ccc(COc3ccccc3)cc2)cc1 | 3.02%
82 | CCc1ccc(-c2nc(CSCC(=O)N3CCN(c4ncccn4)CC3)c(C)o2)cc1 | -9.6%
83 | CCOC(=O)c1c(-c2ccc(C)o2)csc1NC(=O)CN1CCCCC1.O=C(O)C(=O)O | -0.16%
84 | CC(C)[C@H](NC(=O)c1ccc(C(C)(C)C)cc1)C(=O)Nc1nnc(C2CC2)s1 | 6.77%
85 | CSc1nc(Oc2ccccc2)c2sccc2n1 | 6.24%
86 | COc1ccc(CCn2c(=S)[nH]c3ccc(N4CCOCC4)cc3c2=O)cc1OC | 8.71%
